Assay results taken from the supplement of paper PMC10369915.
Some of the results follow. Cut-off read from the data, not from the text of the source: active = 3.2 or more and inactive = the rest. Most of these values are background signal.

B1: IGHV1-46_Y51_T49N (peptide)
chain: YTFNSYYMHWV
B2: IL4R_Y497_A492T (peptide)
chain: TGNPAYRSFSN
B3: INPPL1_Y986_YF (peptide)
chain: FNNPAYFVLEG
B4: IFT80_Y588_T586S (peptide)
chain: ISISPYPAILH
B5: INA_Y87_T92S (peptide)
chain: ARTNEYKIIRS
B6: IFT172_Y260_L257P (peptide)
chain: VVPGSYDRLRV
B7: IFT80_Y588 (peptide)
chain: ISITPYPAILH
B8: IKBKB_Y199_V203I (peptide)
chain: LEQQKYTVTID
B9: INPPL1_Y661_P659S_YF (peptide)
chain: SFPSTYRFERG
B10: IL23R_Y178_YF (peptide)
chain: FLTSSYINIST
B11: IL17RB_Y447 (peptide)
chain: KYVVVYFREID
B12: IGLL1_Y192 (peptide)
chain: RSRRSYSCQVM
B13: IL23R_Y178 (peptide)
chain: YLTSSYINIST
B14: IL6ST_Y396 (peptide)
chain: LTNDRYLATLT
B15: IL4R_Y497 (peptide)
chain: AGNPAYRSFSN
B16: IL4R_Y575 (peptide)
chain: APTSGYQEFVH
B17: IL1RAPL1_Y615 (peptide)
chain: TFHNTYHSQMR
B18: IL17RB_Y457_N458S (peptide)
chain: DTKDDYSALSV
B19: INSR_Y1038 (peptide)
chain: SFGMVYEGNAR

Molecular target: SHP2 C-SH2 domain E139D
Assay: enrichment score (SH2-bound / input frequency) (ratio); bacterial display of known human phosphotyrosine sites (pTyr-Var adds point mutants) read by sequencing; higher = stronger binding; tyrosines were phosphorylated by kinases first
Settings: peptide library: pTyr-Var
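Note: displayed peptides selected on beads carrying the immobilized SH2 domain, with library peptides lacking any tyrosine serving as negative controls.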

Binder	enrichment score
B1	active: 3.29
B2	inactive: 0.492
B3	inactive: 0.985
B4	inactive: 0.629
B5	inactive: 0.621
B6	inactive: 0.75
B7	inactive: 0.748
B8	inactive: 0.621
B9	inactive: 0.817
B10	inactive: 1.99
B11	active: 3.97
B12	inactive: 0.299
B13	inactive: 2.64
B14	inactive: 0.858
B15	inactive: 0.613
B16	inactive: 0.661
B17	inactive: 1.34
B18	inactive: 0.607
B19	inactive: 0.571

Molecular target: SHP2 C-SH2 domain wild-type
Assay: as above
Settings: peptide library: pTyr-Var

Binder	enrichment score
B1	inactive: 3.12
B2	inactive: 0.443
B3	inactive: 1.11
B4	inactive: 0.625
B5	inactive: 0.617
B6	inactive: 0.592
B7	inactive: 0.737
B8	inactive: 0.836
B9	inactive: 0.803
B10	inactive: 2.64
B11	active: 4.57
B12	inactive: 0.176
B13	active: 4.07
B14	inactive: 0.853
B15	inactive: 0.635
B16	inactive: 0.514
B17	inactive: 1.28
B18	inactive: 0.581
B19	inactive: 0.653

Molecular target: SHP2 N-SH2 domain L43F
Assay: as above
Settings: peptide library: pTyr-Var

Binder	enrichment score
B1	inactive: 3.12
B2	inactive: 0.466
B3	inactive: 1.27
B4	inactive: 0.63
B5	inactive: 0.427
B6	inactive: 0.759
B7	inactive: 0.681
B8	inactive: 1.03
B9	inactive: 1.02
B10	inactive: 2.57
B11	active: 8.22
B12	inactive: 0.131
B13	inactive: 3.18
B14	inactive: 0.824
B15	inactive: 0.502
B16	inactive: 0.545
B17	inactive: 1.39
B18	inactive: 0.617
B19	inactive: 0.718

Molecular target: SHP2 N-SH2 domain T42A
Assay: as above
Settings: peptide library: pTyr-Var

Binder	enrichment score
B1	inactive: 2.74
B2	inactive: 0.474
B3	inactive: 0.99
B4	inactive: 0.48
B5	inactive: 0.73
B6	inactive: 0.543
B7	inactive: 0.655
B8	inactive: 0.476
B9	inactive: 0.815
B10	active: 8.83
B11	active: 7.58
B12	inactive: 0.171
B13	active: 7.95
B14	inactive: 0.736
B15	inactive: 0.553
B16	inactive: 0.55
B17	inactive: 1.22
B18	inactive: 0.434
B19	inactive: 0.643

Molecular target: SHP2 N-SH2 domain T52S
Assay: as above
Settings: peptide library: pTyr-Var

Binder	enrichment score
B1	inactive: 3.02
B2	inactive: 0.592
B3	inactive: 0.964
B4	inactive: 0.528
B5	inactive: 0.592
B6	inactive: 0.701
B7	inactive: 0.765
B8	inactive: 0.617
B9	inactive: 0.977
B10	inactive: 2.97
B11	active: 10.2
B12	inactive: 0.169
B13	active: 3.73
B14	inactive: 0.871
B15	inactive: 0.611
B16	inactive: 0.539
B17	inactive: 1.4
B18	inactive: 0.505
B19	inactive: 0.831

Molecular target: SHP2 N-SH2 domain wild-type
Assay: as above
Settings: peptide library: pTyr-Var

Binder	enrichment score
B1	inactive: 3.14
B2	inactive: 0.831
B3	inactive: 0.96
B4	inactive: 0.695
B5	inactive: 0.515
B6	inactive: 0.664
B7	inactive: 0.686
B8	inactive: 0.611
B9	inactive: 1.06
B10	inactive: 1.69
B11	active: 4.07
B12	inactive: 0.302
B13	inactive: 2.22
B14	inactive: 0.776
B15	inactive: 0.527
B16	inactive: 0.82
B17	inactive: 1.41
B18	inactive: 0.616
B19	inactive: 0.816
